Article PMC5605996
No constants are given. Whether binding was seen depends on the method and setting. Binding seen in cells or lysates may run through a third protein. Some binding calls cover weakened binding; strength is not graded here.

Amino acid sequences for entries named in this document (tags omitted).
UniProt Q9V727: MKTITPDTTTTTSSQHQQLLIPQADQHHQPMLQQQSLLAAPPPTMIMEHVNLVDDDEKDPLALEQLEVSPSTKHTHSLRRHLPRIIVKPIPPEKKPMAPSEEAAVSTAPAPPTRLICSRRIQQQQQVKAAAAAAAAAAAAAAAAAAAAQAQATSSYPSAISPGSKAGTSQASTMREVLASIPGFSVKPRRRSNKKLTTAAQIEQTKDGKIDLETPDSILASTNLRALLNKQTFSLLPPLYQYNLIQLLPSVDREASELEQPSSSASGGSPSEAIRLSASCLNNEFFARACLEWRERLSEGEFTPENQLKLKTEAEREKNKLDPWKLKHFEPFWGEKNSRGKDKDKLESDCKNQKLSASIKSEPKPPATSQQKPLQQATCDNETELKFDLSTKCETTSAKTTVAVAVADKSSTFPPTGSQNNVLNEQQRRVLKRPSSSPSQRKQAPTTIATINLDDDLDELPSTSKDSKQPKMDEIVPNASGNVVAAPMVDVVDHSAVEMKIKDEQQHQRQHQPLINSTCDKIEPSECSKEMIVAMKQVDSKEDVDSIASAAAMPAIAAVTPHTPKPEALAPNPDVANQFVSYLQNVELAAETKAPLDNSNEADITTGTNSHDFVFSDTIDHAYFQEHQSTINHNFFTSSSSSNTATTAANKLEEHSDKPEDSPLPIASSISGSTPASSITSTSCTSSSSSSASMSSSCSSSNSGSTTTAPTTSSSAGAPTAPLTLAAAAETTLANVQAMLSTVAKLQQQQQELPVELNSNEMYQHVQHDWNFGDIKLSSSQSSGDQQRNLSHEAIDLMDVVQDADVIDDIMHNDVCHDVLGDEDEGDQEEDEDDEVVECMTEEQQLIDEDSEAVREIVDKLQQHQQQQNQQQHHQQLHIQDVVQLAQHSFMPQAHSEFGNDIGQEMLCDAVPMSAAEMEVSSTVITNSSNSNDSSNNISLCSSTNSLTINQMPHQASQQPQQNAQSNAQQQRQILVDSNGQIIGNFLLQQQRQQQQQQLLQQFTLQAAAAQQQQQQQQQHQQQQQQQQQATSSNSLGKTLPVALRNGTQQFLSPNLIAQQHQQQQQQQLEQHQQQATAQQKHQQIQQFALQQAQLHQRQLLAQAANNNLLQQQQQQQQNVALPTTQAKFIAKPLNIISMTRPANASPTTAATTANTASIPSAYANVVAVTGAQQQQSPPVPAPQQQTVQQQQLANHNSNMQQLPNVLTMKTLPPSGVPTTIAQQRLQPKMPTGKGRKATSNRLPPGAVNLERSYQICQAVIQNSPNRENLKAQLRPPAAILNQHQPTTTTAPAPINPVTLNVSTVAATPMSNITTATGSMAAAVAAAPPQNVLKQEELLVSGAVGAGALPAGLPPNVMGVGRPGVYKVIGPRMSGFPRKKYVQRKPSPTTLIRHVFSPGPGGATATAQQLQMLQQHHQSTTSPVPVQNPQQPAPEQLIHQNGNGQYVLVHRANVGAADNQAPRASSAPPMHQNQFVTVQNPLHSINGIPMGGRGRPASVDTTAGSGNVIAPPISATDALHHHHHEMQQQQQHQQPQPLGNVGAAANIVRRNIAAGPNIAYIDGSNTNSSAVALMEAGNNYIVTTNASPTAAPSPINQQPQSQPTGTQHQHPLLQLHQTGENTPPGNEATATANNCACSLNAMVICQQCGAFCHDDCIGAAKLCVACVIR

Biological target: GST fusion of the SET domain of Enhancer of zeste, GST-E(z)SET (Drosophila) (UniProt P42124)
Experiment: pull-down; 1 μg GST-E(z)SET or GST-TrxSET immobilised on GSH-agarose, mixed 2 h at 4 °C with pre-cleared reticulocyte lysate holding 35S-Asx or its deletion fragments; washes with 0.6 M NaCl, pH 7.9; SDS-PAGE and autoradiography, densitometry relative to GST; only the target purified

“full-length Additional sex combs (Asx), 35S-methionine-labelled, in vitro translated, A(1-1669) (from UniProt Q9V727 1-1669)” was tested, and the binding was “binds”.
